# Data reported in PubChem BioAssay (Tox21).
# Values joined by “and” are separate entries in the source; they are usually repeats but may differ in a detail not shown here. Identical values can stand only once. Inconclusive results, whose numbers are uncertain, are shown with a selection of clear calls. For part of these data: Potencies of inconclusive entries are doubtful fits and often do not repeat. Active and inactive are the calls of the source. Unless noted, calls come from the whole dose curve; as a rule, active = well fitted cell-killing curve with a large enough effect in the repeat runs; inconclusive = weak or mixed curves, or effect the other way; inactive = no such curve, though single readings can be large or run the other way.
# Assays:
# [1] = qHTS assay to identify small molecule agonists of the vitamin D receptor (VDR) signaling pathway - cell viability counter screen (AID 743224); note: potency is the fitted concentration of half-maximal effect; nearly all actives have a fitted effect of over 50% in size
# How it was run: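 VDR-bla cells, 4 h after plating, exposed to compounds for 16 h at 37C; viability then read in the same wells as CellTiter-Glo luminescence after 30 min at room temperature, following the bla FRET read.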
# [2] = qHTS assay to identify small molecule antagonists of the vitamin D receptor (VDR) signaling pathway - cell viability counter screen (AID 743225); details: VDR-bla HEK293T viability, CellTiter-Glo luminescence, 16 h; viability change, negative = cytotoxic: at 61 µM (top of the series); note: nearly all actives have a fitted effect of over 50% in size; note: potency is the fitted concentration of half-maximal effect; for viability change, negative = cytotoxic: % is set by controls: 0 for no effect and ±100 for the full control effect
# How it was run: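 Cytotoxicity toward the VDR-bla HEK 293T line was scored by ATP-based CellTiter-Glo luminescence, read in the wells already used for the beta-lactamase readout after 16 h compound treatment under 3 nM 1-alpha,25-dihydroxyvitamin D3 stimulation.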
# [3] = qHTS assay to identify small molecule agonists of the NFkB signaling pathway (AID 1159509; active = well fitted curve in the direction sought with a large enough effect in the signal ratio in the repeat runs, not every such curve was filed as active; inconclusive = weak or mixed curves, or a change in a side signal; inactive = no such curve, though single readings can be large or run the other way; the % refers to the signal ratio; note: potency is the fitted concentration of half-maximal effect; for activation: % is set by controls: 0 for no effect and ±100 for the full control effect); details: NFkB-bla ME-180 cells, beta-lactamase FRET ratio, 5 h; activation: at 61 µM (top of the series) unless noted
# How it was run: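 ME-180 NFkB-bla, 2,000 cells/well, overnight plating; cpd pinned in DMSO, 5 h 37 C; B/G FRET substrate 1.5 h RT; ex 405, em 460/530 nm.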
# [4] = qHTS assay to identify small molecule agonists of the endoplasmic reticulum stress response signaling pathway (AID 1159516; active = well fitted activation curve with a large enough effect in the signal ratio in the repeat runs, not every such curve was filed as active; inconclusive = weak or mixed curves, or effect the other way; the % refers to the signal ratio; note: % is set by controls: 0 for no effect and ±100 for the full control effect); details: ESRE-bla HeLa, ER stress beta-lactamase reporter, 5 h; activation: at 61 µM (top of the series) unless noted
# How it was run: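 CellSensor ESRE-bla HeLa cells, 1,500 per well, plated overnight, then exposed to compounds for 5 hr at 37 C. Beta-lactamase reporter read with LiveBLAzer B/G FRET substrate after 2 hr at room temperature, 405 nm excitation, 460 and 530 nm emission.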
# [5] = qHTS assay to identify small molecule agonists of the farnesoid-X-receptor (FXR) signaling pathway - cell viability counter screen (AID 743218); details: FXR-bla HEK293T viability, CellTiter-Glo luminescence, 16 h; viability change, negative = cytotoxic: at 62.6 µM (top of the series) unless noted; note: nearly all actives have a fitted effect of over 45% in size; note: potency is the fitted concentration of half-maximal effect
# How it was run: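 FXR-UAS-bla HEK 293T cells exposed to compounds for 16 h at 37C. Cytotoxicity read in the same wells by CellTiter-Glo luminescence after 30 min at room temperature, following the beta-lactamase FRET read.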
# [6] = qHTS assay to identify small molecule antagonists of the farnesoid-X-receptor (FXR) signaling pathway - cell viability counter screen (AID 743221; active = well fitted cell-killing curve with a large enough effect in the repeat runs, not every such curve was filed as active; inconclusive = weak or mixed curves, or effect the other way; inactive = no such curve, though single readings can be large or run the other way; note: % is set by controls: 0 for no effect and ±100 for the full control effect; nearly all actives have a fitted effect of over 50% in size); details: FXR-bla HEK293T viability, CellTiter-Glo luminescence, 16 h; activity change, negative = cytotoxicity: at 62.6 µM (top of the series) unless noted
# How it was run: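 CellTiter-Glo, 30 min RT, luminescence; same wells as the LiveBLAzer FRET read. Cells: FXR-UAS-bla HEK 293T. Treatment: compound with chenodeoxycholic acid 50 uM final, 16 h at 37 C.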
# [7] = target: Bile acid receptor (Homo sapiens) (UniProt Q96RI1); assay: qHTS assay to identify small molecule agonists of the farnesoid-X-receptor (FXR) signaling pathway (AID 743220; active = well fitted activation curve with a large enough effect in the signal ratio in the repeat runs, not every such curve was filed as active; inconclusive = weak or mixed curves, or effect the other way; the % refers to the signal ratio; note: % is set by controls: 0 for no effect and ±100 for the full control effect); details: HEK293T FXR-UAS-bla, beta-lactamase FRET ratio, 16 h; activation: at 62.6 µM (top of the series) unless noted
# How it was run: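 Beta-lactamase reporter under UAS control in GeneBLAzer FXR HEK 293T cells (5000/well) measured with LiveBLAzer FRET substrate after 2 h at room temperature. Compound exposure lasted 16 h at 37C.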
# Tags give direction and shape of the fitted curve or compound fluorescence and quenching.
# Chain of UniProt Q96RI1 (Q96RI1 whole entry, looked up): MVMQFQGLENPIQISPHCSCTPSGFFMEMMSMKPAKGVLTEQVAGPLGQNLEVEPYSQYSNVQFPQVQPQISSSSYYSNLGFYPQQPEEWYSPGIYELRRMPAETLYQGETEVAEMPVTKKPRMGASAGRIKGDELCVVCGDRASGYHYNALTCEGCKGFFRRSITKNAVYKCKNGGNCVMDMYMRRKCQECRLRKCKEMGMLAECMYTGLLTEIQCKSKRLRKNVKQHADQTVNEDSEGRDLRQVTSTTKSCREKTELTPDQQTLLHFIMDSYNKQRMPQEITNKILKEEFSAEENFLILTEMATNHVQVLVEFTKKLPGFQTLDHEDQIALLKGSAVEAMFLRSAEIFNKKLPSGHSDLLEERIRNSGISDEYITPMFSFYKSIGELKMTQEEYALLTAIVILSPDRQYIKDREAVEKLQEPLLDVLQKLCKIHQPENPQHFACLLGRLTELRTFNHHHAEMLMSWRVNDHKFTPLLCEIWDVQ
compound,measurement,setting,value
Cc1ccc2c(c1N)C(=O)c1ccccc1C2=O,Potency,[1],"inconclusive: 13.8 µM [cytotoxic, full curve]"
same,Potency,[2],inactive
same,Potency,[3],inactive
same,activation,[4],inconclusive: -6.83% and inconclusive: -6.89%
COc1ccc2[nH]cc(CCN(C(C)C)C(C)C)c2c1,"viability change, negative = cytotoxic",[5],inconclusive: -32.2% [cytotoxic] [at 81.1 µM]
same,"activity change, negative = cytotoxicity",[6],inconclusive: -34% [at 81.1 µM]
same,Potency,[3],inconclusive: 2.82 µM [activator]
CO/N=C(/C1=NOCCO1)c1ccccc1Oc1ncnc(Oc2ccccc2Cl)c1F,Potency,[5],"inconclusive: 0.155 µM [rising, partial curve, poor fit]"
same,activation,[7],inconclusive: 3.42%
same,Potency,[6],inactive
same,Potency,[2],"inconclusive: 38.9 µM [cytotoxic, partial curve]"
same,Potency,[3],"inconclusive: 48.9 µM [falling, single point]"
